Experiments:
[1] = target: T1, Mouse monomeric Tie2 (Tie2-Ig3-FNIII(1-3)) (mouse, UniProt Q02858 349-737); assay: SPR (Biacore 3000), Tie2 immobilised on CM5, IGT-427 injected, 1:1 Langmuir fit
T1 sequence: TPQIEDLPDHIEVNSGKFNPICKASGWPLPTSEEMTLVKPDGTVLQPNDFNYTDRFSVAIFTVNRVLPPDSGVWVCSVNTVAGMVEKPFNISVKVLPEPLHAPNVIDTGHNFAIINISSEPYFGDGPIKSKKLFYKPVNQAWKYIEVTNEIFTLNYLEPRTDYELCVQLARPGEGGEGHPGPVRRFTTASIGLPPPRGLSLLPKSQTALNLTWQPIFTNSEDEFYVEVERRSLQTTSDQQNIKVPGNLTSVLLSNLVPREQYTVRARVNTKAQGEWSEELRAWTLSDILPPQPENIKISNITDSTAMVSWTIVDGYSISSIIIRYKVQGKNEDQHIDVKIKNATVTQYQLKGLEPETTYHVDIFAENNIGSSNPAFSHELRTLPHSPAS

[2] = target: T2, Human dimeric Tie2 (Tie2-Ig3-FNIII(1-3)-mouse IgG1 Fc fusion) (human; mouse, UniProt Q02763 349-738); assay: as above
T2 construct: IL2 signal peptide of the vector is left out; also called human Tie2-Fc fusion protein; not shown: mouse IgG1 Fc of the pFuse-mouse IgG1 Fc2 vector

[3] = target: T3, Rabbit dimeric Tie2 (Tie2-Ig3-FNIII(1-3)-mouse IgG1 Fc fusion) (rabbit; mouse, UniProt Q02763 349-738, limits assumed); assay: as above
T3 construct: also called rabbit Tie2-Fc fusion protein; not shown: mouse IgG1 Fc of the pFuse-mouse IgG1 Fc2 vector
T3 chain: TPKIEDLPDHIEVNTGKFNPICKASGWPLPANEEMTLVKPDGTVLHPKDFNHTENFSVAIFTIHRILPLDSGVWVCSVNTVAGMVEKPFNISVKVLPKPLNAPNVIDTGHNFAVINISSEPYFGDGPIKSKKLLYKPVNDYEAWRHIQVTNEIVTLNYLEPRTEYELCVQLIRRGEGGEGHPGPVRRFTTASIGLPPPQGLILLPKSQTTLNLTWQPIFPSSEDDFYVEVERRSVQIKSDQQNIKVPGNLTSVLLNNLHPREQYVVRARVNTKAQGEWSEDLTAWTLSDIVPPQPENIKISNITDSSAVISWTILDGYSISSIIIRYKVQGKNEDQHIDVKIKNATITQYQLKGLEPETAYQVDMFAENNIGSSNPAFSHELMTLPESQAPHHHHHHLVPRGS

[4] = target: T4, Mouse dimeric Tie2 (Tie2-Ig3-FNIII(1-3)-mouse IgG1 Fc fusion) (mouse, UniProt Q02858 349-737); assay: as above
T4 construct: also called mouse Tie2-Fc fusion protein; not shown: mouse IgG1 Fc of the pFuse-mouse IgG1 Fc2 vector
T4 sequence: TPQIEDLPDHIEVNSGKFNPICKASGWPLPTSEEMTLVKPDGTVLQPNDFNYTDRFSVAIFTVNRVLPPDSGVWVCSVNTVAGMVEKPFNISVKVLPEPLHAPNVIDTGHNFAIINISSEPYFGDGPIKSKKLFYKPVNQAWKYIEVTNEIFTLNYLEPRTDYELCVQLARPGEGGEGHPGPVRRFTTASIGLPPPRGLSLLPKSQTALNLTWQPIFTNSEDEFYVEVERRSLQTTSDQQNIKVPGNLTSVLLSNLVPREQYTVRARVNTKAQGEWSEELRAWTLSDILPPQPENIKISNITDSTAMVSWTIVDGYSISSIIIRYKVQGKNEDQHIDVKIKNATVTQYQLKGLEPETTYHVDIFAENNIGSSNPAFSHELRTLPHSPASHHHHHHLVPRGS

[5] = target: T5, Rabbit monomeric Tie2 (Tie2-Ig3-FNIII(1-3)) (rabbit, UniProt Q02763 349-738 (human entry), limits assumed); assay: as above
T5 chain: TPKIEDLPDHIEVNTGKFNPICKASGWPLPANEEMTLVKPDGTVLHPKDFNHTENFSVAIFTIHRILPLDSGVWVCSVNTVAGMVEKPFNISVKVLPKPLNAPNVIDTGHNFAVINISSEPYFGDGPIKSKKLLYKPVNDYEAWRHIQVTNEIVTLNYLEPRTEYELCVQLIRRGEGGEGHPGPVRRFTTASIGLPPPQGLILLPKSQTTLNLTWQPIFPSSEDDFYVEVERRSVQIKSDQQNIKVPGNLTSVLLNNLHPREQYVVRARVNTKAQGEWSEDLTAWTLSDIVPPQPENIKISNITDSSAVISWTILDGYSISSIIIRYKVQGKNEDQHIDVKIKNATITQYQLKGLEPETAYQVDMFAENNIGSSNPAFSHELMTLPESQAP

[6] = target: Human monomeric Tie2 (Tie2-Ig3-FNIII(1-3)) (human, UniProt Q02763 349-738); assay: as above
[7] = target: T6, rabbit Tie2 (form not stated) (rabbit); assay: SPR, summary table, column Rabbit Tie2, Kd [M]
T6 construct: also called rabbit ortholog of Tie-2

[8] = target: T7, recombinant human VEGF (human, UniProt P15692-4 27-191, limits assumed); assay: cell-based or functional assay
T7 sequence (looked up): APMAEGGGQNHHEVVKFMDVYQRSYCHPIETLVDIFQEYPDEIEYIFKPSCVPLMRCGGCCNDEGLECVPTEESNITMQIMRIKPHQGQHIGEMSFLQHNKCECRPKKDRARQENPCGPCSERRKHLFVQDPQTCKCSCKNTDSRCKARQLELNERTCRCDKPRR

B1: IGT-427 (Fc fusion)
heavy: EVQLVQSGAEVKKPGASVKVSCKASGYSFTSYWMNWVRQAPGQGLEWMGMIHPSDSETRLNQKFMDRVTMTRDTSTSTVYMELSSLRSEDTAVYYCARGLYGNSWGQGTLVTVSSASTKGPSVFPLAPSSKSTSGGTAALGCLVKDYFPEPVTVSWNSGALTSGVHTFPAVLQSSGLYSLSSVVTVPSSSLGTQTYICNVNHKPSNTKVDKKV[sequence of human IgG1 Fc with L234A L235A H310A (EU numbers) not given]GGGGSGGGGSGGGGSGGGGSSDTGRPFVEMYSEIPEIIHMTEGRELVIPCRVTSPNITVTLKKFPLDTLIPDGKRIIWDSRKGFIISNATYKEIGLLTCEATVNGHLYKTNYLTHRQTNTIIDVVLSPSHGIELSVGEKLVLNCTARTELNVGIDFNWEYPSSKHQHKKLVNRDLKTQSGSEMKKFLSTLTIDGVTRSDQGLYTCAASSGLMTKKNSTFVRVHEK
light: DIQMTQSPSSLSASVGDRVTITCRASQDIGISLNWYQQEPGKAIKRLIYATSSLDSGVPKRFSGSRSGTEYTLTISSLESEDFADYYCLQYASSPYTFGGGTKLEIKRTVAAPSVFIFPPSDEQLKSGTASVVCLLNNFYPREAKVQWKVDNALQSGNSQESVTEQDSKDSTYSLSSTLTLSKADYEKHKVYACEVTHQGLSSPVTKSFNRGEC
notes: Anti-Tie2 antibody with a VEGF trap fused to the C-terminus of each heavy chain; also called ITP-016
Work on B1 yielded a Kd [1] of 3620 pM, a koff [1] of 0.000433 s⁻¹ and a Kd [2] of 442 pM. It also gave a koff [2] of 4.7e-05 s⁻¹, a kon [2] of 106000 M⁻¹ s⁻¹ and a Kd [3] of 532 pM. For the same binder, the koff [3] was 6.82e-05 s⁻¹, the kon [3] was 128000 M⁻¹ s⁻¹ and the Kd [4] was 3460 pM. For the same binder, the koff [4] was 0.000307 s⁻¹, the kon [4] was 88700 M⁻¹ s⁻¹ and the Kd [5] was 393 pM. For the same binder, the koff [5] was 6.49e-05 s⁻¹, the kon [5] was 165000 M⁻¹ s⁻¹ and the Kd [6] was 250 pM. The koff [6] was 4e-05 s⁻¹, the kon [6] was 159000 M⁻¹ s⁻¹ and the Kd [7] was < 64.2 pM. For the same binder, the “IC50, VEGF reporter assay (KDR/NFAT-RE HEK293 cells, luminescence)” value [8] was ~480 pM.
